Screen size: about 410,000 compounds; about 310 (0.076%) were called active. About 2% were inconclusive and are not listed. Calls follow the shape of the dose curve; as a rule, active = well fitted curve in the direction sought with a large enough effect; inconclusive = small, poorly fitted or top-dose-only effect; inactive = flat fitted curve, though single readings scatter. The list shows a part of the results, in another mix than the full data. Some structures have more than one record in an assay (separate samples or runs), and their calls can disagree.
biological target: DNA dC->dU-editing enzyme APOBEC-3G (Homo sapiens) (UniProt Q9HC16); test: qHTS for Inhibitors of Vif-A3G Interactions: qHTS; settings: HeLa A3G-eYFP + Vif (tagged APOBEC3G with the HIV-1 protein that degrades it), YFP fluorescence, overnight; series mostly up to 46.1 µM; activity, negative = active: at the top concentration; also: nearly all actives have a fitted effect of over 60% in size;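 as to activity, negative = active: hits raise eYFP signal because A3G escapes Vif-driven loss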
Description: The recent discovery and characterization of host restriction factors, which provide a potent defense to invading retroviruses, has provided new targets for antiviral drug development. APOBEC3G (A3G) and APOBEC3F (A3F) are potent cytidine deaminases that block HIV-1 replication; HIV-1 expresses the Vif protein, which counteracts A3G and A3F by binding to them and inducing their proteasomal degradation. The Vif-A3G and Vif-A3F interactions provide two potential targets for development of small molecules which can interfere with the ability of Vif to degrade A3G or A3F. […] To identify inhibitors that can interfere with Vif mediated degradation of A3G and A3F, we have developed Hela cell lines that stably express A3G or A3F tagged with eYFP at the C-terminal end (A3G-eYFP or A3F-eYFP, respectively) and Vif. In the absence of an inhibitor, Vif induces degradation of A3G-eYFP and A3F-eYFP, and the cells are not fluorescent. In the presence of an inhibitor, it is expected that Vif will be unable to degrade A3G-eYFP and/or A3F-eYFP, resulting in an increase in yellow fluorescence. In this assays Vif A3G was screened against the Molecular Library Small Molecule Repository (MLSMR). NIH Chemical Genomics Center [NCGC] NIH Molecular Libraries Probe Centers Network [MLPCN] MLPCN Grant: MH093245 Assay Submitter (PI): Vinay Pathak, National Cancer Institute
5 uL of 700 cells/well of A3G-YFP cells are dispensed into black, clear bottom plates. The plates are incubated overnight at 37 deg C. 23 nL of compounds are added by pintool. The plates are incubated overnight at 37 deg C and then read on the TTP Acumen (Ex 488/ Em 500-530).
% is scaled to controls: 0 for no effect and ±100 for the full control effect; potency is read from the fitted curve at half-maximal effect.

Sequence of UniProt Q9HC16 (Q9HC16 whole entry, looked up): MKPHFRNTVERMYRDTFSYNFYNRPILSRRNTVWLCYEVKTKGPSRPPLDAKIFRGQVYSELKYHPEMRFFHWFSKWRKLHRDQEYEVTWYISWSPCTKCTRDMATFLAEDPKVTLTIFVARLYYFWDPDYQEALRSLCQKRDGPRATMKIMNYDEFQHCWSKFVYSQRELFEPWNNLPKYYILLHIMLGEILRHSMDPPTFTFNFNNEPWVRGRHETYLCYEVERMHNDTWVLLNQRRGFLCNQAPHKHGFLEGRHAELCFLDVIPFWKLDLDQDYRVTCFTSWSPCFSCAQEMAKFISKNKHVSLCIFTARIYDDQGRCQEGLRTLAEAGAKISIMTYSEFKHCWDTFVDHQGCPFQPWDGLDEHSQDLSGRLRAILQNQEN

SMILES | activity, negative = active | Potency
Cc1cccc(NC(=O)CSc2nc3ccccc3c3nc(CCc4c(C)n[nH]c4C)nn23)c1 | inactive: -18.7% | –
CCOC(=O)c1ccc(NC(=O)CSc2nc(-c3cccs3)cc(C(F)(F)F)c2C#N)cc1 | inactive: -6.5% | –
COc1cc(-c2noc(C)c2C#Cc2ccc(N)cc2)cc(OC)c1OC | inactive: -23.3% | –
CCN(CC)c1ccc(/C=C/c2ccccn2)cc1 | – | active: 3.16 µM
CCOC(=O)N1C(=O)[C@](c2ccc(Cl)cc2)(C(C)C)N1C(=O)OCC | inactive: -28.5% | –
O=C(CNC(=O)Cc1ccccc1)NCC(=O)OCC(=O)c1cccc2ccccc12 | inactive: -3.48% | –
COc1ccc(OC)c(NS(=O)(=O)c2ccc(-n3cccn3)cc2)c1 | inactive: -27.5% | –
N#C/C(=C/c1ccncc1)c1nc2ccccc2c(=O)[nH]1 | inactive: 0.354% | –
Cc1cccc(CS(=O)(=O)c2ncc(Cl)c(C(=O)Nc3nnc(C(C)C)s3)n2)c1 | inactive: -12.1% | –
O=C(/C=C\c1ccco1)Oc1cccc2cccnc12 | inactive: 0.0799% | –
COc1ccc(CN([C@H](CO)CC(C)C)S(=O)(=O)N(Cc2ccccc2)[C@H](CO)CC(C)C)cc1 | inactive: -13.8% | –
O=C(/C=C/c1ccc(-c2ccccc2)o1)c1ccccc1 | inactive: -23.7% | –
C=CCOC(=O)C1=C[C@H](c2ccccc2)[C@@H](CCCO)[C@H](OCC)O1 | inactive: -3.71% | –
O=C(Nc1ccc2c(c1)CCCN2C(=O)c1cccs1)c1c(F)cccc1F | inactive: -30.2% | –
Cc1ccc2nc(/C(C#N)=C/c3ccc(-c4cccc(Cl)c4)o3)[nH]c2c1 | – | active: 7.94 µM
COc1ccc(N=Cc2c(O)c3ccccc3n2C(C)=O)cc1 | – | active: 12.6 µM
COc1ccc(CNC(=O)c2nc(S(=O)(=O)Cc3ccccc3)ncc2Cl)cc1 | inactive: -19.7% | –
Cc1ccc(N(C)S(=O)(=O)c2ccc(-c3cnc(C4CC4)o3)cc2)cc1 | inactive: -34% | –
O=C(CSc1nc2c([nH]c3ccccc32)c(=O)n1-c1cccc(Cl)c1)N1CCOCC1 | inactive: -0.261% | –
COc1ccccc1Nc1nn2c(=O)c3ccc(C(=O)N4CCCCC4)cc3nc2s1 | inactive: 0.963% | –
Cc1[nH]c2ccccc2c1C(=O)/C=C/c1ccccc1Cl | inactive: -25.4% | –
C[C@@H]1CC=C[C@H]2[C@H]1C(=O)N(Cc1ccccc1)[C@H]2c1ccoc1 | inactive: -16% | –
COc1cc(-c2cc(O)c(-c3ccc4ccccc4n3)c(=O)[nH]2)cc(OC)c1OC | – | active: 10 µM
CC1=CC(C)(C)Nc2ccc(OC(=O)c3ccco3)cc21 | – | active: 11.2 µM

SMILES | activity, negative = active | Potency
CN(C)c1ccc(C=Cc2ccnc3ccccc23)cc1N | inactive: -12.9% | –
NN=C1c2ccccc2C(=O)C1C(=O)C(c1ccccc1)c1ccccc1 (configuration not stated) | – | active: 11.2 µM
COC(C/C=C/C(=O)[C@@H](C)OCc1ccccc1)OC | inactive: -0.341% | –
CC1CCN(C(=O)C(C)Sc2nc(-c3ccccc3)cc(C(F)(F)F)n2)CC1 (configuration not stated) | inactive: -4.84% | –
C[C@@H]1O[C@@H](O[C@@H]2C(=O)c3c(O)cc(O)cc3O[C@H]2c2ccc(O)c(O)c2)[C@H](O)[C@H](O)[C@H]1O | – | active: 11.2 µM
OCC1OC(n2cnc3c(=S)nc[nH]c32)C(O)C1O (configuration not stated) | inactive: -9% | –
COc1ccc(NC(=O)c2oc3ccc(S(=O)(=O)N4CCOCC4)cc3c2C)cc1 | inactive: -6.44% | –
O=[N+]([O-])c1cc(O)c2ncccc2c1 | – | active: 11.2 µM
O=C(c1ccc(OCCN2CCCCC2)cc1)c1c(-c2ccc(O)cc2)sc2cc(O)ccc12 | inactive: -24.5% | –
C=CC[C@@H](CC(=O)N[C@@H](CO)Cc1ccccc1)C(=O)NC[C@@H](OC(=O)[C@@H](CC=C)Cc1ccc(F)cc1)c1ccccc1 | inactive: -10.3% | –
O=C(O)CCn1cc(/C=C\C(=O)c2ccc(Cl)cc2)c(-c2cccc(Br)c2)n1 | inactive: -18.3% | –
Cn1cc(S(=O)(=O)N2CCCC2)cc1C(=O)N1CCN(c2cccc(Cl)c2)CC1 | inactive: -22.3% | –
CC(C)COc1ccc(C(=O)N/C(=C\c2cccc([N+](=O)[O-])c2)C(=O)O)cc1 | inactive: 0.0447% | –
CC(C)n1cc(/C=C/c2cc[n+](C)cc2)c2ccccc21 | – | active: 3.98 µM
CCN1CCN(Cc2ccc(NC(=O)c3cc(NC(=O)C(=O)c4c[nH]c5ccccc45)cc(OC)c3)cc2C(F)(F)F)CC1 | inactive: -20.5% | –
CCc1ccccc1NC(=O)Cn1nnc(C(=O)NCc2cccc(OC)c2)c1N | inactive: -25.6% | –
COc1cccc(Cn2c3ccc(NC(=O)CCc4ccc(F)cc4)cc3c(=O)n2C)c1 | – | active: 3.98 µM
Cc1ccc(C)c(OCCn2cc(/C=C(\C#N)C(=O)NCC3CCCO3)c3ccccc32)c1 (configuration not stated) | inactive: -0.132% | –
COc1cc(N2CCCC2)c(OC)cc1/C=C(/C#N)c1ccc(F)cc1 | – | active: 10 µM
COC(=O)c1ccccc1NC(=O)Cn1nnc(-c2ccc(OC)cc2)n1 | inactive: -22.6% | –
COC(C[C@@H]1O[C@@H]1C(=O)[C@@H](C)OCc1ccccc1)OC | inactive: 0.814% | –
CCOc1cccc(CNc2ccc(O)cc2)c1OCc1ccccc1Cl | inactive: -17.6% | –
CCN(CC)c1ccc(/C=C/c2cccc[n+]2C)c(OC)c1 | – | active: 7.94 µM

— PubChem BioAssay AID602310 (National Center for Advancing Translational Sciences (NCATS), 2012)
